Reference: PubChem BioAssay AID504466 (National Center for Advancing Translational Sciences (NCATS), 2011)
About 4,200 (1.3%) of roughly 330,000 compounds were called active. The shares of active, inactive and inconclusive entries below differ from those in the screen. Calls come from the whole dose curve; as a rule, active = well fitted activation curve with a large enough effect; inconclusive = small, poorly fitted or top-dose-only effect; inactive = no such curve, though single readings can be large or run the other way. A potency beside an inconclusive call is a rough fit, not a confirmed value.

experiment: qHTS screen for small molecules that induce genotoxicity in human embryonic kidney (HEK293T) cells expressing luciferase-tagged ELG1; details: HEK293T ELG1-luciferase reporter, luminescence, 16 h; series mostly up to 46 µM; note: nearly all actives have a fitted effect of over 60% in size
Text: NIH Molecular Libraries Probe Production Network [MLPCN] NIH Chemical Genomics Center [NCGC] MLPCN Grant: 1 R03 MH092164-01 Assay Provider: Kyungjae Myung, NHGRI, NIH Keywords: MLPCN, qHTS, NCGC, genotoxicity, cancer Assay Overview: Cancer cells divide rapidly compared to normal cells in the body. During cell division, cancer cells need to duplicate their genome by DNA replication. The failure of genome duplication leads to cancer cells' death. Therefore, inhibitors of DNA replication could specifically kill cancer cells. Based on this concept, many chemotherapeutic agents were developed and have been used to treat cancer patients. However, there are a limited number of agents available in the clinical setting, and some of those that do exist have low efficacy and severe side effects. […] With this in mind, we developed a quantitative high-throughput ELG1-luciferase reporter gene assay. […]
Assay Protocol Summary: For genotoxicity screening, 2,000 cells in 5 uL/well were dispensed into white, solid-bottom 1536-well plates using a solenoid-based dispenser. […] 5 ul ONE-Glo (Promega) was then added to each plate and following a 30 min incubation at room temperature, luciferase activity was quantified on a ViewLux CCD-based plate reader.
Potency is the fitted concentration of half-maximal effect; tags give direction and shape of the fitted curve.

Row | Compound | Potency
1 | COc1cc(/C=N/Nc2ccc(Cl)c(C(=O)O)c2)ccc1OC(=O)c1ccc(F)cc1 | inconclusive: 2590 nM [activator, full curve]
